# From PubChem BioAssay AID602310 (National Center for Advancing Translational Sciences (NCATS), 2012)
# Among all 410,000 compounds or so, about 310 (0.076%) were called active. Inconclusive means that the source gave no clear call. Such entries were picked first, then a sample of the others. The call rests on the fitted dose curve; in most records, active means well fitted curve in the direction sought with a large enough effect; inconclusive means small, poorly fitted or top-dose-only effect; inactive means flat fitted curve, though single readings scatter. Potencies beside an inconclusive call are fits to weak or partial responses and may not hold up.
# Molecular target: DNA dC->dU-editing enzyme APOBEC-3G (Homo sapiens) (UniProt Q9HC16)
# Assay: qHTS for Inhibitors of Vif-A3G Interactions: qHTS; further: nearly all actives have a fitted effect of over 60% in size
# Conditions: HeLa A3G-eYFP + Vif (tagged APOBEC3G with the HIV-1 protein that degrades it), YFP fluorescence, overnight; series mostly up to 46.1 µM
# How it was run: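 HeLa cells stably expressing Vif and C-terminally eYFP-tagged A3G, seeded overnight at 37 deg C, then exposed to compound by pintool overnight at 37 deg C. Rise in yellow fluorescence (Ex 488/Em 500-530, Acumen) marks blocked Vif-driven A3G degradation.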
# Potency means the concentration at half of the fitted maximal effect; tags describe the fitted curve by direction and shape.
# UniProt Q9HC16, sequence (Q9HC16 whole entry, looked up): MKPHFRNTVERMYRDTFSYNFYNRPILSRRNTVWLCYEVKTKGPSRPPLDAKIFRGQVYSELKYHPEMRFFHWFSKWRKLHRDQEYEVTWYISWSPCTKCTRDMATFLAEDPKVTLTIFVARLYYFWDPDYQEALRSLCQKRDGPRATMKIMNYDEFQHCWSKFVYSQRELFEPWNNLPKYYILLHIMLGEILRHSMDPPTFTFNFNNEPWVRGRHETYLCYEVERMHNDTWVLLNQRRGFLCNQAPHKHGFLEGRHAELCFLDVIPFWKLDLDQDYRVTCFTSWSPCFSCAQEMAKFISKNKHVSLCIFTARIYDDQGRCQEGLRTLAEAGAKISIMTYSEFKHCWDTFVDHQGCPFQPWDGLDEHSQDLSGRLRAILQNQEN
row,Structure (SMILES),Potency
1,O=Nc1ccc(O)c2ncccc12,"inconclusive: 3.55 µM [inhibitor, full curve, poor fit]"
2,COc1cccc2c1C(=O)/C(=C\c1ccc(N(C)C)cc1)C2,"inconclusive: 2.82 µM [inhibitor, partial curve, poor fit]"
3,CCCCCOc1ccc(/C=C/c2c([N+](=O)[O-])c(=O)n(C)c(=O)n2C)cc1,inactive
4,O=C1NC2c3ccccc3C(=O)N2c2c1cnn2-c1ccccc1 (stereo not drawn),"inconclusive: 15.8 µM [inhibitor, single point]"
5,Cc1cccc(C)c1NC(=O)COC(=O)c1ccc2[nH]c3c(c2c1)CCCC3,inactive
6,O=C(Nc1ccccc1)NN(C(=O)CCl)c1ccccc1,"inconclusive: 20 µM [inhibitor, single point]"
7,Oc1cccc(Nc2nc(O)c(/C=C3\C=Nc4ccccc43)s2)c1,active: 4.47 µM
8,O=C(NCc1ccco1)c1cc2ccc(O)cc2oc1=O,inactive
9,CCNc1ccc(/C=C/c2ccnc3ccccc23)cc1,"inconclusive: 22.4 µM [inhibitor, single point]"
10,Cc1cccc(C)c1Nc1nnc(SCc2nc3ccccc3c(=O)[nH]2)s1,"inconclusive: 17.8 µM [inhibitor, single point]"
11,COC(=O)c1c(SC)nc2ccccc2c1OCc1cccc(C)c1,inactive
12,Cc1cc(NC(=O)c2cc(-c3ccncc3)nc3c(C)cccc23)no1,"inconclusive: 2.24 µM [inhibitor, full curve, poor fit]"
13,COc1ccc(S(=O)(=O)N2CCCOC2CNC(=O)C(=O)NCCc2ccco2)cc1C (stereo not drawn),"inconclusive: 8.91 µM [inhibitor, partial curve, poor fit]"
14,CCOc1ccccc1C1NC(=O)c2ccccc2N1 (stereo not drawn),"inconclusive: 1.12 µM [inhibitor, full curve, poor fit]"
15,Cn1c(Cl)c(C(=O)Nc2ccc(Cl)cc2)c2ccccc21,"inconclusive: 3.55 µM [inhibitor, full curve, poor fit]"
16,COc1ccc(N2CCN(CC(O)COc3ccc(C)c(C)c3)CC2)cc1 (stereo not drawn),inactive
17,Cc1oc(-c2ccc(C(=O)N(C)Cc3ccccc3)cc2)nc1CN1CCc2ccccc21,inactive
18,Cc1cc(Nc2cccc(F)c2)nc(NCc2ccccc2)n1,"inconclusive: 35.5 µM [inhibitor, single point]"
19,CC1(C(=O)NCc2cccs2)Cc2c(-c3ccccc3)ccnc2O1 (stereo not drawn),"inconclusive: 3.16 µM [inhibitor, partial curve, poor fit]"
20,CN1CCN(CCCNC(=O)c2ccc3c(=O)n(CCc4ccccc4)c(=O)[nH]c3c2)CC1,"inconclusive: 25.1 µM [inhibitor, single point]"
21,COc1ccc(C(=O)NNC(=O)c2ccc3ccccc3n2)cc1,"inconclusive: 35.5 µM [inhibitor, single point]"
22,COc1ccc(-c2csc(C3=C(O)CN(C(C)C)C3=N)n2)cc1OC,inactive

row,Structure (SMILES),Potency
1,CC(C)CC(=O)Nc1nc2ccc(S(=O)(=O)N3CCOCC3)cc2s1,"inconclusive: 14.1 µM [inhibitor, partial curve, poor fit]"
2,COc1ccccc1NC(=O)c1ccc(-c2ccc(Br)cc2)o1,"inconclusive: 2.51 µM [inhibitor, full curve, poor fit]"
3,O=C(NNC(=O)C1C2CCCCC21)c1coc(=O)c(Br)c1 (stereo not drawn),inactive
4,CCN(CC)c1ccc2c(c1)OC(N)=C(C#N)C2c1cccnc1 (stereo not drawn),"inconclusive: 22.4 µM [inhibitor, partial curve, poor fit]"
5,Cc1ncc(CO)c(/C=N/NC(=S)Nc2ccc(F)cc2)c1O,inactive
6,COCCNC(=O)c1cc2c(c(-c3cccc(-c4cc5ccccc5o4)c3)n1)[C@H](CCO)N(S(=O)C(C)(C)C)C2 (stereo partly drawn),"inconclusive: 15.8 µM [inhibitor, single point]"
7,Cc1nc2c3cc(Cl)ccc3n(CCN3CCOCC3)c2s1,"inconclusive: 35.5 µM [inhibitor, partial curve, poor fit]"
8,O=C(Nc1ccc(Cl)cc1)[C@@H]1[C@@H]2C(=O)N(c3ccc4ccccc4c3)C(=O)[C@@H]2[C@H]2C=CC=NN21,inactive
9,COc1cc(-c2cn[nH]c2N)cc(OC)c1OC,"inconclusive: 31.6 µM [inhibitor, single point]"
10,O=C(Nn1nnnc1Nc1ccccc1)C12CC3CC(CC(C3)C1)C2,"inconclusive: 31.6 µM [inhibitor, single point]"
11,COc1ccc(-n2c(SCC(=O)Nc3ccccc3)nnc2-c2ccc(NS(=O)(=O)c3ccc(C)cc3)cc2)cc1,"inconclusive: 11.2 µM [inhibitor, single point]"
12,CC(=O)Oc1cc(O)c2c(c1)OC(c1ccc(OC(C)=O)c(OC(C)=O)c1)C(OC(C)=O)C2=O (stereo not drawn),inactive
13,CNc1nc(Nc2ccc(C)c(Cl)c2)c2cnn(C)c2n1,inactive
14,CCc1nc(Sc2nc(C)cc(C)n2)c2oc3ccccc3c2n1,"inconclusive: 22.4 µM [inhibitor, single point]"
15,Cc1ccc(C)n1-c1ccc(C(=O)NN)s1,"inconclusive: 31.6 µM [inhibitor, single point]"
16,CC(C)n1cnc2c(NCc3ccccc3)cc(N[C@H](C)CO)cc21,"inconclusive: 11.2 µM [inhibitor, partial curve, poor fit]"
17,NC(=S)N/N=C/c1ccc(-c2ccc(Cl)c(Cl)c2)o1,"inconclusive: 11.2 µM [inhibitor, partial curve, poor fit]"
18,COc1ccccc1N1C(=O)c2cccc3c(C(=O)O)ccc(c23)C1=O,"inconclusive: 7.94 µM [inhibitor, partial curve, poor fit]"
19,COc1cccc(-c2cc(NC(C)=O)c3ncc(-c4cccc(C(C)=O)c4)n3c2)c1,"inconclusive: 25.1 µM [inhibitor, single point]"
20,COc1cc(/C=C2\COC/C(=C\c3cc(OC)c(OC)c(OC)c3)C2=O)cc(OC)c1OC,"inconclusive: 0.631 µM [inhibitor, full curve, poor fit]"
21,COC(=O)C(NNc1ccccc1)(NC(=O)c1ccc(F)cc1)C(F)(F)F (stereo not drawn),inactive
